The experiment deals with apolipoprotein E4 (human) (UniProt P02649). Nature of the experiment: cross-linking; apoE4/POPC rHDL cross-linked with a large excess of BS3 (molar ratio BS3:apoE4 200:1), SDS-PAGE.

As usually defined, the stoichiometry N is the number of molecules, sites or subunits per partner or assembly. On to “apolipoprotein E4 (a stretch of the chain, chain not printed) (natural protein; other documents disagree on this pair)”, for which the stoichiometry N is 2.

(Values after article PMC6033463.)
